Experimental data as given in the supplement of paper PMC11417369.
The other results are listed elsewhere or left out.

Tested on: PfAP2-HC AP2 domain (GST-tagged)
Assay: gcPBM binding intensity (ln(normalized median fluorescence intensity)); higher = stronger DNA binding
How it was run: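 DNA-binding domains from P. falciparum, fused to GST and produced in E. coli, were put on an Agilent 4 × 180k double-stranded probe array for 1 h in 1× PBS holding 1% milk, 0.2 mg/ml BSA, 0.5% salmon testes DNA and 0.03% Triton X-100. Probes were primer-extended, 36 bp long and drawn from intergenic genomic regions, with negative controls included. After Alexa488 anti-GST antibody detection and a 488 nm scan, binding intensity was set as the highest Masliner-normalised natural-log median intensity across replicate spots of either probe orientation.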

Row | Sequence | gcPBM binding intensity (ln)
1 | TGGGTGTAGAACAATTGTACTTTGTAAAAATATAAG [XGTACX_site8464] | 9.68
2 | TTTATACTATAATTATGTACTTATAAAAGGAATAAA [XGTACX_site8027] | 9.38
3 | ATAAACACATCTATATGTACATATATATATATATAC [XGTACX_site347] | 10.1
4 | ATGTAAATACATATATGTACACAAATATATATATAT [XGTACX_site3537] | 9.86
5 | TATATAAATATACATTGTACTCAACATTTTCATTAA [XGTACX_site3690] | 9.62
6 | TATATTAAATAAAAAGTGCATGTCTCATAAGATGGA [GTGCAC_site9520] | 9.74
7 | TATAAATAAAGCAGTACACACATTTATTTTAGATAC [CACACA_site7566] | 10
8 | ATAAAATGTTAAGGGTGTACTTTACACATCTCCTAT [XGTACX_site4699] | 9.71
9 | ATAGGGAATTTATGCACACAGTTAAGGGGGAAAATT [CACACA_site5183] | 9.84
10 | TATAAGATTATACAAAGTACATATAAATAATATATT [XGTACX_site1917] | 9.41
11 | ATATATATATAAATATGTACATATATATATTATATA [XGTACX_site120] | 9.8
12 | TTAAAAAAAGATTATACACACACATATATAAACATA [CACACA_site8136] | 10.6
13 | TCCTCTTTTATTTTTACACACGCGTAAACATATATA [CACACA_site667] | 10
14 | TGAAATAAAAAATATAGTACTCGTTCGTAACCAAAA [XGTACX_site413] | 9.71
15 | ATGGGTTAAAAATGCACACAAAAAAATATACAGATA [CACACA_site4321] | 10
16 | TGTATTAATAAAAATACACACATCATATTATAGAAA [CACACA_site7629] | 9.8
17 | ATATATAAGGATGTCACACATAAATATTAACACTAA [CACACA_site5101] | 9.73
18 | TTCAATTTTTTATGAACACACAAAAAAAAAAAAAAA [CACACA_site2533] | 9.23
19 | ACATAATTAACAAATACACACACACCCACCCACAAA [CACACA_site8069] | 10.7

Row | Sequence | gcPBM binding intensity (ln)
20 | TTATATTATTTTTATACATGCATTTCTATATATTTT [TGCATGCA_site164] | 9.86
21 | AAGAAAAAATATATATATATATATATATATAATATG [TGCATGCA_negctrl_site417] | 9.58
22 | ATTTGTGATTTGTGTGTGCACGTATTTACAGAACAA [GTGCAC_site9498] | 10.1
23 | ATATAAATTATTTACACACAAACATTTATACTTTTA [CACACA_site3448] | 9.86
24 | TTTTGTTACGGCAAGGAAGTTAAGCATAAATGAATG [GTGCAC_negctrl_site173] | 9.45
25 | CAGGCGTGAAATATACGTACACACATTATTTATATT [XGTACX_site5337] | 9.94
26 | ATATATCTACTGTGTTGTACTGTTAATATTTGAATA [XGTACX_site1931] | 9.78
27 | ATATAAGTGTATCTAACACACAAATATGTAAAAATG [CACACA_site7006] | 10.2
28 | TATATACACATATATACACACACATATATATATATA [CACACA_site9127] | 10.2
29 | ATATTTTTTGCTATTACACACAAGGGATTATTATTT [CACACA_site7776] | 9.92
30 | AAGAAAAAAAATATATATGTATATATTATTTTAACA [TGCATGCA_negctrl_site534] | 9.54
31 | TAATAATAGTCTAATACATGCATCGATAACGGAACT [TGCATGCA_site98] | 9.58
32 | ATGTTAATAACTTGTGGTACTGTTATAATTTAGTAA [XGTACX_site2114] | 9.63
33 | TTTTTATTTTTAAAGGCACACACATTTTTATTTTTA [CACACA_site8624] | 9.97
34 | AATAAATAAATAATATAATGAAATTATAAAATGTGG [TGCATGCA_negctrl_site385] | 9.84
35 | AAATGAAATTTGTATACACACAAATATATTTATATA [CACACA_site6525] | 9.78
36 | TATTTGTGCCAAAAATGAAAAAGTTTGTATAAAACC [CACACA_negctrl_site1406] | 9.49
37 | AAAATTACTATATGAACACACATGATTAGATATATG [CACACA_site3083] | 9.87
38 | TATATATATATATACACACACACCCTAAAAATATAT [CACACA_site1611] | 10.4

Row | Sequence | gcPBM binding intensity (ln)
39 | TGAAAGAATTAATTTTGTACATATAAAAATTTTATT [XGTACX_site8500] | 9.49
40 | AAAAAAAAAAAATATACACACACATATATATATATA [CACACA_site9123] | 10.3
41 | AACAACAATTTCGTCATACACACATTCAGAATATAT [CACACA_site2371] | 9.85
42 | AATGATCATAAATACACACACACAAAAAAAAAAAAA [CACACA_site6072] | 10.3
43 | TATTAAAAAAATGTATGTACATATATAAATTTTTTT [XGTACX_site1094] | 9.52
44 | GATGGATTTATTTAAAGTACATATTTAAAAAACTGT [XGTACX_site7567] | 9.46
45 | TTTCTCCCATTTTTTAGTACACAAAATATATATGTA [XGTACX_site7218] | 9.66
46 | AAAGTAAAAGAAAGCACACACACATGTATATATGTA [CACACA_site3857] | 10.2
47 | TTTTAAAAATTAAGTGCATGTCCTTATAAAAAAAAA [TGCATGCA_site845] | 9.34
48 | TTCATATATTTAGGACGTACTTTTATATTACTATAT [XGTACX_site6456] | 9.8
49 | AATTTTTTTTTAATCATGCACACTGTTAAAAGAATA [CACACA_site1240] | 9.43
50 | AAAAAATAGAATATAAAAATAAAGGAATTAAATTAA [XGTACX_negctrl_site420] | 9.69
51 | TATATATAAATATATGTGCACTTTTTATATTTATAT | 9.7
52 | ATATGGAATAATACGCGTACACACATATATATATTA [XGTACX_site307] | 9.9
53 | TTTATATCATTACAAGTGCATATCATCATAAATTCT [GTGCAC_site9878] | 9.59
54 | TCTTGATTATATAGTACTACACATTATAAAAAAATT [XGTACX_site2465] | 9.57
55 | TGTTATTATAACATTTTTTTCAAAATAGCTTTAGAA [CACACA_negctrl_site266] | 9.06
56 | ATAATACCCAAGCACACACACACACCGATATATATA [CACACA_site8344] | 11.3
